Test results published in PubChem BioAssay AID651820 (National Center for Advancing Translational Sciences (NCATS), 2012).
In all, about 340,000 compounds went through this assay and about 12,000 (3.5%) were called active. Inconclusive results, whose numbers are uncertain, are shown with a selection of clear calls. Calls come from the whole dose curve; as a rule, active = well fitted inhibition curve with a large enough effect; inconclusive = small, poorly fitted or top-dose-only effect, or another doubt; inactive = no such curve, though single readings can be large or run the other way. No potency is given beside an inconclusive call; the fits are too rough.

assay: qHTS Assay for Inhibitors of Hepatitis C Virus (HCV); conditions: Huh7.5.1 HCVcc-Cre (HCVcc is cell-culture hepatitis C virus) infection, luciferase reporter, 44 h; series mostly up to 41.8 µM
Summary of the method: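 Cells (1,000/well) were plated 4 h before compound, then infected with HCVcc-Cre virus (~0.5 moi). After 44 h further culture, infection was read as luciferase luminescence following a 15 min substrate incubation at room temperature.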
Potency is the fitted concentration of half-maximal effect; tags give direction and shape of the fitted curve.

| SMILES | Potency |
| --- | --- |
| O=C(CSc1ccc(Cl)cc1)NC(=O)c1ccccc1 | inconclusive [inhibitor, single point] |
| C=CC[C@@H](CC(=O)N[C@H](CO)Cc1ccccc1)C(=O)N[C@@H](COC(=O)[C@H](CC=C)CC(=O)OC(C)(C)C)Cc1ccccc1 | inconclusive [inhibitor, single point] |
| CCOC(=O)c1c(C)nc(-c2ccccc2)nc1N | inconclusive [inhibitor, single point] |
| O=C(CN1C(=O)c2ccccc2C1=O)Oc1ccc(Cl)cc1 | inactive |
| CCOC(=O)[C@H]1[C@H]2COc3ccc(Br)cc3[C@@H]2N2C(=O)c3ccc(C)cc3NC(=O)[C@@]12C | inconclusive [inhibitor, partial curve, poor fit] |
| COc1cccc(C(=O)NCCC2=CCCCC2)c1OC | inactive |
| CCOC(=O)Cn1c2ccccc2c2nc(C)sc21 | inactive |
| CC(=O)c1c(-c2ccccc2)c2cc(Cl)ccc2n(C)c1=O | inconclusive [inhibitor, partial curve] |
| CCc1nn(CCCC(=O)N(C)Cc2ccccc2)c(=O)c2cc3occc3n12 | inconclusive [inhibitor, single point] |
| COc1ccc(-c2c(C)oc3c(CN4CCOCC4)c(O)ccc3c2=O)cc1 | inactive |
| COc1cc(CC(=O)NCc2ccc3c(c2)OCO3)cc(OC)c1OC | inactive |
| O=C(NOCc1ccccc1)OCc1ccccc1 | inconclusive [inhibitor, single point] |
| COc1ccc(-c2csc(Nc3ccc(S(N)(=O)=O)cc3)n2)cc1 | active: 5.01 µM |
| Cc1cc(/C=N/Nc2nc(N3CCOCC3)nc(N3CCOCC3)n2)c(C)n1-c1ccccc1 | inconclusive [inhibitor, full curve] |
| CCN1C(=O)c2cccc3c(NC(=O)c4ccc5c(c4)OCCO5)ccc1c23 | inconclusive [inhibitor, single point] |
| CCOC(=O)c1cccc(NC(=O)CNS(=O)(=O)c2cccs2)c1 | inconclusive [inhibitor, full curve] |
| O=C(O)c1cc([N+](=O)[O-])ccc1N1CCCCC1 | inactive |
| COc1ccc([N+](=O)[O-])cc1NC(=O)c1cccs1 | active: 11.2 µM |
| COc1cccc(-c2nc(NCCN3CCOCC3)c3ccccc3n2)c1O | active: 10 µM |
| COc1ccc(NC(=O)CN(C)C(=O)CC2CCCC2)cc1 | inactive |
| O=C(Nc1ccccc1)/C(=C/c1cccnc1)NC(=O)c1ccccc1 | inactive |
| COC(=O)c1ccc(S(=O)(=O)N2C3CCC2CC(NC(=O)C2CC2)C3)cc1 (stereo unspecified) | inactive |
| O=C(Nc1cccc(F)c1)c1ccc(S(=O)(=O)NCC2CCCO2)cc1 (stereo unspecified) | inconclusive [inhibitor, partial curve] |

| SMILES | Potency |
| --- | --- |
| Cc1nn(-c2ccccc2)c2nc(N)c(C(N)=O)cc12 | inconclusive [inhibitor, partial curve] |
| COc1cc2c(cc1NC(=S)Nc1cccc(C(F)(F)F)c1)oc1ccccc12 | active: 10 µM |
| CCOc1ccccc1NC(=O)C(c1ccccc1)N1CCN(CC(=O)N2CCOCC2)CC1 (stereo unspecified) | inactive |
| CCOc1cc(N2CCOCC2)c(OCC)cc1NC(=O)COC(=O)c1ccc([N+](=O)[O-])o1 | inconclusive [inhibitor, single point] |
| CCC(CC)C(=O)Nc1cccc(C(=O)Nc2ccc(S(=O)(=O)Nc3ccc(C)cc3)cc2)c1 | active: 15.8 µM |
| COc1ccc(-c2nc(C#N)c(N3CCCCCC3)o2)cc1 | inconclusive [inhibitor, partial curve] |
| COc1ccc(C(CC(=O)N2CCCC(C)C2)c2c(OC)cc(OC)c3ccc(=O)oc23)cc1 (stereo unspecified) | active: 11.2 µM |
| Cc1ccnc(NC(=O)c2cccc(S(=O)(=O)N3CCCc4ccccc43)c2)c1 | inconclusive [inhibitor, partial curve] |
| O=C(Nc1ccc2c(c1)C(=O)N(CC1CCCO1)C2=O)c1ccccc1Br (stereo unspecified) | inactive |
| COc1ccccc1-c1cc(N)n(S(=O)(=O)c2ccc(F)c(C)c2)n1 | inconclusive [inhibitor, single point] |
| COc1ccc(OC)c(Nc2nc(-c3sc(NC(=O)CC(C)C)nc3C)cs2)c1 | active: 2.82 µM |
| CC1(C)[C@@H](O)CC[C@]2(C)C3C(O)C=C4[C@H]5C[C@@](C)(CO)CC[C@]5(C)CC[C@]4(C)[C@]3(C)CC[C@@H]12 (stereo partly specified) | inactive |
| C=CC[C@H](CC(=O)N(CCO)Cc1ccccc1)C(=O)N[C@@H](C)COC(=O)[C@H](CC=C)CC(=O)OC(C)(C)C | inconclusive [inhibitor, single point] |
| COCCn1c(SCC(=O)Nc2cccc(OC)c2)nc2c(oc3ccccc32)c1=O | inconclusive [inhibitor, partial curve] |
| CN(C)c1ccc(/C=C/c2ccc3ccccc3n2)cc1 | inconclusive [inhibitor, single point] |
| O=C(OCC(=O)N1CCOCC1)c1cc(-c2ccccc2)nc2ccccc12 | inactive |
| COC(=O)c1oc2ccc(OC)cc2c1N | inconclusive [inhibitor, single point] |
| COc1ccc(/C=N/NC(=O)c2nn(-c3ccc(C)c(C)c3)c(=O)c3ccccc23)cc1 | inactive |
| Cc1nc(Oc2cccc(Cl)c2)c2oc3ccccc3c2n1 | inconclusive [inhibitor, single point] |
| O=C1c2cccc3cccc(c23)C(=O)N1CC1CCN(CC(O)COc2ccc3ccccc3c2)CC1 (stereo unspecified) | active: 7.94 µM |
| CCCN(Cc1cc2cc(OC)ccc2[nH]c1=O)C(=O)c1ccco1 | inconclusive [inhibitor, single point] |
| CC(=O)c1cc(-c2ccccc2)n(CCC(=O)NC2CCCCCCC2)c1C | inconclusive [inhibitor, partial curve] |
| Nc1cc(S(=O)(=O)Nc2ccccc2Cl)ccc1N1CCOCC1 | inconclusive [inhibitor, single point] |
